According to PMC4336329 (PLoS ONE, 2015):
Out of some 310,000 compounds screened, about 14,000 (4.5%) showed an effect of 50% or more. The effect is printed as a negative number. This is one part of the list.

Target: human ether-à-go-go-related gene (hERG) potassium channel (human, UniProt Q12809)
Assay: primary screen, population patch clamp on CHO cells stably expressing hERG
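Further: peak tail current of the secondary pulse compared with the same well before compound.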

Sequence of human ether-à-go-go-related gene (hERG) potassium channel (Q12809 whole entry, looked up): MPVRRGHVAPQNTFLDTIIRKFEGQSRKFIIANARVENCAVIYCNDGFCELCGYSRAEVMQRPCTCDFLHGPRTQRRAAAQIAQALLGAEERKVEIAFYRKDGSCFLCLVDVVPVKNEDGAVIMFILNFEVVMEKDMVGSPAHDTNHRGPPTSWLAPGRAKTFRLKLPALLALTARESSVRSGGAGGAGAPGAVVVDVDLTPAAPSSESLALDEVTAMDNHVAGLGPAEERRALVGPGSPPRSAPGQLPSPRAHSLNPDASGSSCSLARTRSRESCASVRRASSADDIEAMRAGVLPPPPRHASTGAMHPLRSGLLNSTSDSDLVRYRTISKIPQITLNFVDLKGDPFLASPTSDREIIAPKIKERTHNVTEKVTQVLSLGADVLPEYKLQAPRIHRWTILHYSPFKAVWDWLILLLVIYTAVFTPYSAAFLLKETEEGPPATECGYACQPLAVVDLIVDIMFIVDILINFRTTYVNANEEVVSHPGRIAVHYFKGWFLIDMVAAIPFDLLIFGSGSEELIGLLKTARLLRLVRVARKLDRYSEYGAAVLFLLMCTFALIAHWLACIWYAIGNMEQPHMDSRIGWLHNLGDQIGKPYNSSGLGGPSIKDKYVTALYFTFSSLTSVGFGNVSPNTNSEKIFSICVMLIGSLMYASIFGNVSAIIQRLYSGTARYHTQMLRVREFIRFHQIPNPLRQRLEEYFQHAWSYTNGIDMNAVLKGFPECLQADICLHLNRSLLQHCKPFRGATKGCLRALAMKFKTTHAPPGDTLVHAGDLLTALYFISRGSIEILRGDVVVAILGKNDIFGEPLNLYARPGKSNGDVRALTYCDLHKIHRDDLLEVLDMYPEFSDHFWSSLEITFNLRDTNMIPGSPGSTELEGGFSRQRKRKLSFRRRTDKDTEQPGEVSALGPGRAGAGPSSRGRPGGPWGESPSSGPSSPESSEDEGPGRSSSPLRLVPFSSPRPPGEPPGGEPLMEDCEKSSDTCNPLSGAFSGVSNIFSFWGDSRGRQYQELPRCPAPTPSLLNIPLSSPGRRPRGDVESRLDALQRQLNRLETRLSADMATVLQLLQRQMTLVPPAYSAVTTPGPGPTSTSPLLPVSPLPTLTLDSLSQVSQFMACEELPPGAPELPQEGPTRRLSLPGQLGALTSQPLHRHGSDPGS

| Compound | hERG current change (%, negative = inhibition) at 10uM |
| --- | --- |
| CC(C)CCn1c(CN2CC(C)OC(C)C2)nc2c1c(=O)n(C)c(=O)n2C (stereo not shown) | 11.7% |
| Cc1ccc(S(=O)(=O)N2CC(C(=O)O)=CC[C@H]2c2ccc3c(c2)OCO3)cc1 | 0.234% |
| COc1ccc(-c2nnc(Nc3ccc(OC)c(C(=O)N4CCCCC4)c3)c3ccccc23)cc1 | -39.3% |
| Cc1cc(Nc2nc3ccccc3nc2Cl)n(-c2ccc([N+](=O)[O-])cc2)n1 | -6.73% |
| C=CCNc1nc2ccccc2nc1NS(=O)(=O)c1cccs1 | -2.96% |
| CCOc1ccc(-n2cnc3scc(-c4ccc(OC)c(OC)c4)c3c2=O)cc1 | -4.54% |
| O=C1CSC2=NCN(c3ccc4c(c3)OCO4)CN12 | -18.2% |
| COc1cc2c(cc1OC)C(C(=O)N1CCCC1)C(c1ccccc1F)N(C)C2=O (stereo not shown) | 15.4% |
| CN(CC(=O)Nc1cccc2c1CCCC2)S(=O)(=O)c1ccccc1 | 1.63% |
| CCCc1cnc(N2CCN(C(=O)c3ccc(OC)cc3)CC2)nc1 | -52.4% |
| CCNCc1cc([N+](=O)[O-])ccc1OCC.Cl | -1.39% |
| COc1ccc(N(CC(=O)NCCSCc2ccco2)S(=O)(=O)c2ccc(C)cc2)cc1 | -17.9% |
| CCCCNC(=O)Cn1cnc2sc(C(=O)OCC)c(C)c2c1=O | 3.05% |
| NC1=NC[C@@H](Cc2ccc(O)cc2)N1CCc1cccc2ccccc12 | 9.21% |
| COc1ccccc1CNC(=O)Cc1csc(NC(=O)Nc2ccccc2OC)n1 | -4.45% |
| CC(=O)N1CCCc2cc(S(=O)(=O)N3CCCC(C(=O)Nc4cccc(F)c4)C3)ccc21 (stereo not shown) | -12.7% |
| COC(=O)c1ccc(C2NC(=O)c3c(sc(C)c3C)N2)cc1 (stereo not shown) | 10.7% |
| Cn1c(=O)c2c(SCC(=O)N3CCCc4ccccc43)nc(CC(C)(C)C)nc2n(C)c1=O | -7.29% |
| O=C(NC1CC1)c1c(O)c2ccccc2[nH]c1=O | 14.2% |
| CCOc1ccccc1NC(=O)NC1CCN(CC(=O)Nc2ccc3c(c2)OCCO3)CC1 | -28% |
| CSCCC(NC(=O)c1ccccc1Cl)C(=O)NCCOc1ccccc1 (stereo not shown) | -0.961% |
| CCOc1ccc(NC(=O)/C(C=Nc2ccccc2)=C(\C)O)cc1 | 5.6% |

| Compound | hERG current change (%, negative = inhibition) at 10uM |
| --- | --- |
| COc1ccc(N2C(=O)[C@H]3[C@@H](C2=O)C2c4ccccc4C=NN2[C@H]3C(=O)C(C)(C)C)cc1 (stereo partly shown) | 11.2% |
| Cc1nc2ccccc2n1CC(=O)c1ccccc1 | -0.44% |
| COc1cc(NC(=O)C(C)Oc2ccccc2)cc(OC)c1 (stereo not shown) | -2.9% |
| CCCCC(=O)NC(Nc1sc2c(c1C(N)=O)CCCC2)(C(=O)OCC)C(F)(F)F (stereo not shown) | 2.28% |
| O=C(C(=O)N1CCN(Cc2ccccc2)CC1)c1c[nH]c2ccccc12 | 0.38% |
| Cc1ccc(CCc2nnc(SCC(=O)Nc3cccc(Cl)c3)n2-c2ccccc2)o1 | -40.5% |
| COC(=O)c1ccccc1S(=O)(=O)N1CCC(NC(=O)c2ccccc2)CC1 | 3.04% |
| Cn1c(Cc2ccc(Cl)cc2)nnc1SCC(=O)NC1CC1 | -6.99% |
| CCC(=O)N1c2ccc(S(=O)(=O)NCc3ccccc3)cc2CC1C (stereo not shown) | 13% |
| COc1ccc(C=O)c(OC)c1 | 13.9% |
| CCCCCn1c(=O)c(-c2nc3ccccc3[nH]2)c(O)c2ccccc21 | 21.3% |
| COc1cc2c(cc1OC)C(C)N(C(=O)Nc1ccccc1)CC2 (stereo not shown) | 12% |
| Cc1cc(Cl)ccc1OCCCC(=O)N1CCN(S(=O)(=O)c2ccccc2)CC1 | -13.9% |
| Cc1ccc(Nc2nnc(C3C(=O)N(C)C4(C)CC3c3cc(Br)ccc3O4)s2)cc1 (stereo not shown) | 12.9% |
| NC1=NC[C@@H](Cc2ccc(O)cc2)N1CCc1cccc(F)c1 | 5.43% |
| O=C(CCS(=O)(=O)c1cccc2nsnc12)N1CC(=O)N(CCc2ccccc2)C(=O)C1 | -15.7% |
| Cc1ccc(S(=O)(=O)CNC(=S)c2cccc(Cl)c2)cc1 | 12.7% |
| CCOC(=O)C1CCN(Cc2nnc(-c3cccc(Br)c3)o2)CC1 | -10.9% |
| COc1cccc(C(=O)CSc2nnc(-c3cc(OC)c(OC)c(OC)c3)o2)c1 | 9.51% |
| O=C(NNc1nccc(C(F)(F)F)n1)Nc1cccc(Cl)c1 | 3.11% |
| O=C(NC(=S)Nc1ccc(S(=O)(=O)Nc2ncccn2)cc1)c1ccc(Br)cc1 | 23.6% |
| CCCCC(C(=O)NC1CCCC1)N(Cc1ccccc1)C(=O)c1snc(C(N)=O)c1N (stereo not shown) | -40.3% |

| Compound | hERG current change (%, negative = inhibition) at 10uM |
| --- | --- |
| COCCSc1ccccc1C(=O)N1CCC(Cc2ccccc2)CC1 | -24.7% |
| O=[N+]([O-])c1ccc(C=Nc2cccc3ccccc23)s1 | -2.12% |
| CCCn1cc(SCC(N)=O)c2ccccc21 | 7.28% |
| CCC(C)[C@H](NC(=O)NC1CCCc2ccccc21)C(=O)O (stereo partly shown) | 20.6% |
| CCSc1nc2ccccc2n1C(=O)/C=C\c1ccc(OC)c(OC)c1 | 1.4% |
| FC(F)(F)c1nnc2ccc(N3CCN(c4ccccc4)CC3)nn12 | 2.75% |
| CC(C)=CC(=O)OCC(=O)Nc1cccc([N+](=O)[O-])c1 | -4.15% |
| COCCn1c(N)c(N(Cc2ccccc2)C(=O)COc2ccccc2F)c(=O)[nH]c1=O | 13.4% |
| Cc1ccc(OCC(=O)N(C)CC(=O)Nc2ccccc2Cl)c([N+](=O)[O-])n1 | -16.7% |
| CN(C)/C=N/c1nc(-c2ccc3c(c2)OCO3)cs1 | 3.54% |
| CCOC(=O)CNC(=O)CCc1nnc2ccc(N3CCC(C)CC3)nn12 | 3.67% |
| Cc1cc(C)c(NS(=O)(=O)c2c(C(=O)N3CCOCC3)c(C)n(C)c2C)c(C)c1 | 4.57% |
| Cc1cccc(NC(=O)c2sc3nc(N4CCOCC4)c4c(c3c2N)CCCC4)c1 | 14% |
| CCOC(=O)CSc1nc2ccccc2c(=O)n1CC1COc2ccccc2O1 (stereo not shown) | -3.47% |
| COCCN(Cc1cc2cc(C)cc(C)c2nc1Cl)C(=O)Nc1ccccc1 | -8.89% |
| Cc1[nH]n(-c2ccccc2)c(=O)c1C(=O)Nc1ccccc1 | -4.31% |
| CC(C)c1ccc(NC(=O)c2ccc3c(c2)CCN3S(C)(=O)=O)cc1 | -12.6% |
| Cc1ccc(S(=O)(=O)N2CCCC2C(=O)Nn2cnnc2)cc1 (stereo not shown) | 6.37% |
| O=C(NC1CCCCCCC1)c1ccc(Br)cc1 | 4.95% |
| COc1ccc(Cl)cc1C(=O)CSc1nnnn1C1CCCCC1 | -4.88% |
| O=CC(Cl)P(=O)(N1CCCCC1)N1CCCCC1 (stereo not shown) | 17.4% |
| COc1ccc(N/N=C(/C(N)=O)C2=NC(C)(C)Cc3ccccc32)cc1 | 1.85% |

| Compound | hERG current change (%, negative = inhibition) at 10uM |
| --- | --- |
| NC(=O)C(c1ccccn1)c1ncc(C(F)(F)F)cc1Cl (stereo not shown) | 11.7% |
| Cc1cc(C(=O)N(C2CCCCC2)C2CCCCC2)no1 | -3.94% |
| Cc1ccc(C23CC4CC(CC(CC(=O)N5CCOCC5)(C4)C2)C3)cc1 | -36.9% |
| CC(=O)c1cccc(NC(=O)C=C(C)C)c1 | 8.57% |
| CC(C)N=C(Nc1ccccc1)c1cccnc1 | -7.11% |
| Cc1ccc(CCN2CC(C(=O)NCc3ccc4c(c3)OCO4)CC2=O)cc1 (stereo not shown) | -37.2% |
| CC(=O)c1cccc(CN2CCN(CC(C)C)C(CCO)C2)c1 (stereo not shown) | 5.29% |
| O=C(Nc1ncnc2c1CCC2)C12CC3CC(CC(C3)C1)C2 | 1.11% |
| [O-][n+]1c2c(nn1-c1ccc(Cl)c(Cl)c1)-c1nonc1CC2 | 23.9% |
| C=CCN1C(=O)/C(=C\C=C2\N(C)c3ccccc3C2(C)C)SC1=S | 10.7% |
| O=C1NC(=S)N/C1=C/c1ccc(Oc2ccc(C(F)(F)F)cc2[N+](=O)[O-])c(Cl)c1 | -0.81% |
| O=C(Nc1cccnc1)c1ccc(-c2ccc(Cl)cc2)o1 | -4.92% |
| COCCCNC(=O)c1ccc(CS(=O)(=O)c2cccc(C(F)(F)F)c2)o1 | -8.62% |
| CC(=O)N1CCOCCOCCOCC1 | 14.3% |
| CCOC(=O)C(CC)n1cnc2c(nnn2-c2ccc(OC)cc2)c1=O (stereo not shown) | -16.3% |
| CCOc1cc(C(=O)OC(C)C(=O)Nc2ccc(NC(C)=O)cc2)ccc1OCC(=O)N1CCCCC1 (stereo not shown) | 13.3% |
| Cc1cc2ccccn2c1C(=O)c1cccc([N+](=O)[O-])c1 | 5.19% |
| O=C(NCCCN1CCCC1)c1ccc2c(c1)N(Cc1ccccc1)CCS2 | -69.6% |
| O=C(Cc1ccccc1)Nc1ccc2oc(-c3cccnc3)nc2c1 | 4.69% |
| COc1cc(/C=C2\CCc3c2nc2ccccc2c3C(=O)O)cc(OC)c1OC | -5.43% |
| Cc1ccc(N2C(=O)CC(N3CCc4ccccc43)C2=O)cc1Cl (stereo not shown) | 15.6% |
| Cn1c(CNC2CCCCC2)nc2ccccc21 | -3.79% |
